Test results published in the supplement of paper PMC7125110.
± gives the standard error. This sample is rich in variants without activity.

B1: glmS ribozyme (parent)
chain: AUAAAAGCGCCAGAACUACAGAAAUGUAGUUGACGAGGAGGAGGUUUAUCGAAUUUUCGGCGGAUGCCUCCAAA

Variants of: B1
Test: self-cleavage kobs at 2500 uM GlcN6P; higher = faster cleavage; RNA array
Details: with glucosamine-6-phosphate
Method in brief: (§1)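 Using a hybridised Cy3 probe at 37 °C, barcoded ribozyme variants transcribed in situ by E. coli RNA polymerase on sequenced MiSeq chips were monitored across tiles imaged over ~14 h. The flow contained glucosamine-6-phosphate from 40 μM to 10 mM in HEPES/KCl/Mg(OAc)2 buffer. Signals were normalised to baseline and to non-cleaving reference variants before per-tile medians were fit to one- or two-exponential decays to yield kobs. Weighted Michaelis–Menten fits across concentrations gave kcat and KM.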

Point of comparison: A12G C16U U69G, “self-cleavage kobs at 2500 uM GlcN6P” value 6.28e-05 ± 2.8e-05 s⁻¹. Against it:
- A15G G35C G37C U49C — lower, < 1e-05 s⁻¹
- A39U U47C U56A — 19-fold higher, 0.00121 ± 0.00039 s⁻¹
- C11G A15C G32U C71U — lower, < 1e-05 s⁻¹
- A12G G40A G60A U69G — lower, < 1e-05 s⁻¹
- G38C G44C A52U U54A — lower, < 1e-05 s⁻¹
- G29U U57A — within error, 4.22e-05 ± 1.5e-05 s⁻¹
- G29A U57G C70G — within error, 0.000123 ± 5e-05 s⁻¹
- A12U A15U C50A G51A G59C — lower, < 1e-05 s⁻¹
- G38A U55C U56C — lower, < 1e-05 s⁻¹
- G32A C50G C71U — 2.7-fold higher, 0.000168 ± 7.3e-05 s⁻¹
- A33U A39G G41A C58U — lower, < 1e-05 s⁻¹
- A28U A36U U46A — lower, < 1e-05 s⁻¹
- A15C G35A G40A G63U — lower, < 1e-05 s⁻¹
- A15C G38U G62C G66U — lower, < 1e-05 s⁻¹
- G29U U30A G35A C70A — lower, < 1e-05 s⁻¹
- A14C A36G G40U A53U U56C — lower, < 1e-05 s⁻¹
- C34U G40A U54C — lower, < 1e-05 s⁻¹
- G40A G60U G63U C67A — lower, < 1e-05 s⁻¹
- G29C C34A G41A — lower, < 1e-05 s⁻¹
- A39G G41A U45G C50A — lower, < 1e-05 s⁻¹
- U31C A64U G66U — lower, < 1e-05 s⁻¹
- G29A C34A G66C C71G — lower, < 1e-05 s⁻¹
- C34U G63U A64G — within error, 0.000111 ± 3.8e-05 s⁻¹
- C11U A36G G37A — lower, < 1e-05 s⁻¹
- A12C A52C — lower, < 1e-05 s⁻¹
- U30A G40C C58A G63A C70U — lower, < 1e-05 s⁻¹
- C16U U57G G62U — lower, < 1e-05 s⁻¹
- G32A G40A U69G — lower, < 1e-05 s⁻¹
- G13U G37C A39C — lower, < 1e-05 s⁻¹
- U30G A33C G66U — lower, < 1e-05 s⁻¹
- C11G G63A C67U — lower, < 1e-05 s⁻¹
- G35U U47A U55C — lower, < 1e-05 s⁻¹
- G40C U56A C61G C67U — lower, < 1e-05 s⁻¹
- A33G A42U U47A A53G — lower, < 1e-05 s⁻¹
- C11U G38A C67U C71A — lower, < 1e-05 s⁻¹
- C34G G41C G44A C58G C71U — lower, < 1e-05 s⁻¹
- U30A G63A U69C — lower, < 1e-05 s⁻¹
- G29U G38C G41U C70G — lower, < 1e-05 s⁻¹
- G35C G41A G59U C70G — lower, < 1e-05 s⁻¹
- C16A G43U A53U G60A C68A — lower, < 1e-05 s⁻¹
- A12U G44U C70U — within error, 5.27e-05 ± 1.8e-05 s⁻¹
- G40C U47A U65G — 10-fold higher, 0.000652 ± 0.00017 s⁻¹
- A14U A36U G43C — lower, < 1e-05 s⁻¹
- A12C G29U G32C U46A — lower, < 1e-05 s⁻¹
- G13U A15U U30G G59C — lower, < 1e-05 s⁻¹
- G40C A52G G60A — lower, < 1e-05 s⁻¹
- A12C C16G C61U — lower, < 1e-05 s⁻¹
- A14G C34G A52U — lower, < 1e-05 s⁻¹
- A12G A15U G63A — lower, < 1e-05 s⁻¹
- C11G G26U G43C — lower, < 1e-05 s⁻¹
- U30C G44U U45G U69G — lower, < 1e-05 s⁻¹
- A33G A39U U46A C61U — lower, < 1e-05 s⁻¹
- C11G A15U U55G — lower, < 1e-05 s⁻¹
- C11U A20C G43A — lower, < 1e-05 s⁻¹
- C16G C19A G32U A42U G60A C68A — lower, < 1e-05 s⁻¹
- U31C G37C A48G U49G U54C C71A — lower, < 1e-05 s⁻¹
- G37U G44U G59A C70U — lower, < 1e-05 s⁻¹
- G37U A53C — lower, < 1e-05 s⁻¹
- A12C G32C G43C — lower, < 1e-05 s⁻¹
- G37C G40A G63U — lower, < 1e-05 s⁻¹
- A14U U45G U47A U54C G62U — lower, < 1e-05 s⁻¹
- A15C A42C C68U — lower, < 1e-05 s⁻¹
- A33U G37C C70G — lower, < 1e-05 s⁻¹
- G35A A53G C58U — lower, < 1e-05 s⁻¹
- A14U C16A G41C — lower, < 1e-05 s⁻¹
- A33C A39U U46A A53U G59U — lower, < 1e-05 s⁻¹
- A36U A39U C70U — lower, < 1e-05 s⁻¹
- G40C A48G A52U C58U — lower, < 1e-05 s⁻¹
- A36G U54A — lower, < 1e-05 s⁻¹
- A12U G32C C70U — lower, < 1e-05 s⁻¹
- G41A A53G U55A — 11-fold higher, 0.000666 ± 0.00022 s⁻¹
- C11U A39G G40A A42G A48U C67A — lower, < 1e-05 s⁻¹
- G29C U31G — lower, < 1e-05 s⁻¹
- G29C U30G C34U U47C A48C G63A C70A — lower, < 1e-05 s⁻¹
- C16U U31C U46C C70U — 5.4-fold higher, 0.000342 ± 0.00015 s⁻¹
- C11U A15U G41C — lower, < 1e-05 s⁻¹
- C11U C34U A42U A48G U56G — lower, < 1e-05 s⁻¹
- G29C A36G G38U A53G — lower, < 1e-05 s⁻¹
- C11G A14C G38A A42U — lower, < 1e-05 s⁻¹
- C34U U45C G59C — lower, < 1e-05 s⁻¹
- C16A G37C G62C — lower, < 1e-05 s⁻¹
- C11G A15U U55G C71U — lower, < 1e-05 s⁻¹
- A14C G35A U49G — lower, < 1e-05 s⁻¹

Variants of: B1
Test: self-cleavage kobs at 10000 uM GlcN6P; higher = faster cleavage; RNA array
Details: with glucosamine-6-phosphate
Method in brief: as §1

G32A G40A U69G and A14G C34G A52U cannot be ordered by “self-cleavage kobs at 10000 uM GlcN6P” value: less than 1e-05 s⁻¹ for the first, less than 1e-05 s⁻¹ for the second.

G37U A53C was tested, and the “self-cleavage kobs at 10000 uM GlcN6P” value was less than 1e-05 s⁻¹.
